Experimental data: US5741689, “Methods to inhibit serine kinase activity and to alter intersubunit binding activity of phosphatidylinositol 3-kinase, and serine kinase active sequence of the same” (Ludwig Institute for Cancer Research, dated 1998)

Molecular target: p110 subunit of PI3-kinase (bovine, wild type, recombinant) (bovine, UniProt P32871)
Test: GST on glutathione-sepharose, p110 Sf9 lysate, bound PI3-kinase activity
Experimental: GST fusion proteins of the various subdomains of p85α were constructed and immobilized on glutathione-sepharose beads, See FIG. 2, A. These proteins were used for affinity analysis with cell lysates prepared from Sf9 cells infected with a recombinant baculovirus expressing p110. The complexes were washed and subjected to PI3-kinase activity. GST alone, and GST p85α bound to glutathione-sepharose beads incubated with wild-type lysate were used as controls.

B1: GST alone (other)
chain: not shown
binding result: no binding
